Measurements reported in PubChem BioAssay AID434955 (Southern Research Specialized Biocontainment Screening …, 2010).
The list shows a part of the results. Shown are side measurements of this screen, not its main read-out; they come without a call. Compounds called inactive in the main read-out are mostly missing here.

Test: beta-lactam sensitization of Mtb H37Rv, H37Rv (AID 434955);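 further: growth measured after seven days incubation then overnight dye step; 0% = bacteria only wells and 100% = bacteria with antibiotic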
Conditions: M. tuberculosis H37Rv growth with meropenem, percent inhibition; measured here: primary screen without meropenem; at 25 µM

| SMILES | inhibition [%] |
| --- | --- |
| CCc1ccc(C(=O)COC(=O)CNC(=O)Cc2ccccc2)cc1 | 1.7 |
| CCOC(=O)c1sc(NC(=O)CSc2nc3c(cc2C#N)CCCCCC3)c(C#N)c1C | 2.26 |
| O=C(Nc1ccc2c(c1)CN(Cc1ccco1)CC2)C1CCCO1 (stereo unspecified) | -4.48 |
| CCc1ccc(N2CC34C=CC(O3)C(C(=O)OC)C4C2=O)cc1 (stereo unspecified) | -2.53 |
| COc1ccc(-c2csc(/C=C/c3ccc4c(c3)OCO4)n2)cc1OC | 19.8 |
| CCN(CC)C(=O)NC1CC2CCCC(C1)N2Cc1ccccc1 (stereo unspecified) | 5.3 |
| CCN1C(=O)c2ccccc2S(=O)(=O)c2ccc(C(=O)NCCOC)cc21 | 9.48 |
| COCCCNC(=O)Cn1c(=O)n(CC(=O)N2CCCCC2)c(=O)c2sccc21 | -1.34 |
| O=C(Nc1ccccc1)c1cc(S(=O)(=O)Nc2cccnc2)ccc1Cl | 1.78 |
| CCc1nc(NC(=O)c2sc(C)nc2C)sc1C(=O)OC | -6.65 |
| O=C(C1=C[C@@H](c2ccc(Br)cc2)C[C@@H](OCc2ccc(CO)cc2)O1)N1CCN(Cc2ccc3c(c2)OCO3)CC1 | 32.4 |
| COc1ccccc1CCn1cnc2c3cc(C)ccc3n(C)c2c1=O | 6.55 |
| O=C1NC(c2ccccc2)=C(c2nc3ccccc3s2)C(c2ccccc2)N1 (stereo unspecified) | 77.1 |
| CC1Cc2ccccc2N1C(=O)C1CCCCN1S(=O)(=O)c1ccccc1 (stereo unspecified) | 8.84 |
| O=C1CNC(=S)N1Cc1ccc(F)cc1 | -1.34 |
| CCOC(=O)c1[nH]c(C)c(C(=O)N2CCOCC2)c1C | -9.63 |
| O=C(CSc1nnc(NC(=O)c2cccc(Cl)c2)s1)NCC1CCCO1 (stereo unspecified) | 7.83 |
| COc1ccc(N2CCN(C(=O)COC(=O)c3ccco3)CC2)cc1 | 15.5 |
| Cc1cnc(C(=O)OC(C)C(=O)Nc2ccc3c(c2)OCCO3)cn1 (stereo unspecified) | 3.62 |
| Nc1nc2ccccc2n1C(=O)c1cccs1 | 10.2 |
| COc1ccc(NC(=O)CSc2ccc3nnc(-c4ccccn4)n3n2)cc1 | 1.29 |
| CCCCOC(=O)CSc1n[nH]c(=O)[nH]c1=O | -18.5 |

| SMILES | inhibition [%] |
| --- | --- |
| O=[N+]([O-])c1nn(-c2cccc(Cl)c2)n(O)c1=NCc1cccnc1 | 75.3 |
| O=C(Cc1ccccc1)N/N=C/c1ccccc1Cl | 1.5 |
| COc1ccc2sc(-c3ccc(N(C)C)cc3)c(C#CC(C)(C)O)c2c1 | -0.02 |
| O=C(NC(=S)Nc1ccccc1F)C1CCCCC1 | 12.7 |
| COc1ccc(-c2cc3ccc(OCc4nn[nH]n4)cc3oc2=O)cc1 | -4.14 |
| CCn1c(=N)n(CC(=O)c2ccc(Cl)c(Cl)c2)c2ccccc21 | 15.7 |
| Cn1c(Cn2c(=O)sc3ccccc32)nnc1SCc1ccccc1 | 1.72 |
| O=C(C[n+]1cc(Br)cc2ccccc21)c1ccc(Cl)cc1 | -3.95 |
| Cc1ccccc1N1CCN(C2CCCN(C(=O)c3ccnn3C)C2)CC1 (stereo unspecified) | -9.39 |
| CC1(C)Cc2c(sc(NC(=O)c3ccc(C(=O)c4ccccc4)cc3)c2C#N)C(C)(C)N1 | 2.99 |
| C[N+]12CCC(CC1)C(C#N)(N1CCOCC1)C2 (stereo unspecified) | 6.11 |
| Cc1ccc(Nc2c([N+](=O)[O-])c(=O)n(C)c3ccccc23)cc1C | -9.25 |
| O=C(COC(=O)c1ccc(Cl)cc1[N+](=O)[O-])NNC(=O)c1cccs1 | 41.3 |
| CN(CCCN1CCOCC1)C(=O)c1cc(COc2c(F)cccc2F)on1 | 0.91 |
| COc1ccc(OCC(=O)NNC(=S)NC(=O)C2CCCCC2)cc1 | 10.9 |
| CC1(C)Cc2cccc(OCC(=O)Nc3cccnc3)c2O1 | 5.39 |
| Cc1cccc(/C=N/NC(=O)NC2CCCCC2)c1 | -0.41 |
| O=C(COc1ccc(Cl)cc1)OCC(=O)N1CCCCCC1 | 29.6 |
| CC1=CC(=O)C(C(C)C)=C/C1=C(\c1cc(C(C)C)c(OP(=O)(O)O)cc1C)c1ccccc1C(=O)O | -6.11 |
| CCc1c(C(=O)OC)nnc2cc(C)nn12 | 4.95 |
| Cc1cc(SCc2ccc(Cl)cc2Cl)nc(=O)[nH]1 | -4.33 |
| CC1CCc2nn(CC(=O)NCCN3CCOCC3)cc2C1 (stereo unspecified) | -1.13 |

| SMILES | inhibition [%] |
| --- | --- |
| Cc1ccc(NC(=O)CSc2nnc([C@@H]3CCCN3C(=O)OC(C)(C)C)o2)c(C)c1 | 11.1 |
| Cn1c(=O)c(=O)n(C)c2cc(S(=O)(=O)N3CCCC3C(=O)Nc3ccc(F)cc3)ccc21 (stereo unspecified) | -0.75 |
| CCCCCCc1cc2cc(-c3nnc(-c4ccccc4O)o3)c(=O)oc2cc1O | 12.1 |
| O=C(NCC1COCCO1)c1cc(COc2ccc(F)cc2F)on1 (stereo unspecified) | -0.79 |
| CC(C)(C)[C@H]1C=C(C(=O)Nc2ccccc2)O[C@@H](OCc2ccc(CO)cc2)C1 | 56.8 |
| COc1ccccc1/C=C1\C(=O)NC(=S)N(c2ccccc2)C1=O | 0.83 |
| CCc1ccc(NC(=O)C2CCN(S(=O)(=O)c3ccc4[nH]c(=O)ccc4c3)CC2)cc1 | -6.41 |
| O=c1c2cc(Cl)ccc2[nH]c(=S)n1Cc1ccco1 | 46 |
| COc1ccccc1NC(=O)c1ccccc1S(=O)(=O)c1ccc([N+](=O)[O-])cc1 | -1.5 |
| COc1ccc(CNC(=O)c2sc3nc4c(c(C(F)(F)F)c3c2N)CCC4)cc1 | 0.35 |
| Cc1ccccc1NC(=O)NCCCN1CCN(C)CC1 | 7.09 |
| COc1cc(C2C(C(N)=O)=C(C)Nc3nc(CCCO)nn32)cc(OC)c1OC (stereo unspecified) | -1.79 |
| CC1CCN(S(=O)(=O)c2ccc(NC(=O)Cc3cccs3)cc2)CC1 | -2.07 |
| COc1cccc(C(=O)O/N=C(\N)Cc2ccc(Cl)cc2)c1 | 27.2 |
| COCCn1c(=NC(=O)CCS(=O)(=O)c2ccccc2)sc2cc(F)ccc21 | -2.84 |
| Cc1cc(C(=O)CN2C(=O)NC(C)(CC(C)C)C2=O)c(C)n1-c1ccc2c(c1)OCO2 (stereo unspecified) | -12.7 |
| Cc1nc2c3ccccc3n(CC(=O)c3ccc(F)cc3)c(=O)n2n1 | -2.1 |
| O=C(CN1CCC(n2nnc3cc(F)ccc32)CC1)NC1CCCCC1 | -7.38 |
| COc1ccc2ccccc2c1/C=N/NC(=O)c1cccc(Br)c1 | 20.8 |
| Cc1cc2c(c(=O)o1)C(C1C=CCCC1)C(C#N)=C(N)O2 (stereo unspecified) | 3.39 |
| Oc1ccc(/C=N/n2c(COc3ccccc3)n[nH]c2=S)cc1O | -0.18 |
| CN1C[C@H](CO)C[C@@H]2c3cccc4[nH]cc(c34)C[C@H]21 | 0.62 |

| SMILES | inhibition [%] |
| --- | --- |
| COc1ccc(CNC(=O)c2nnn(Cc3ccc(OC)cc3)c2N)cc1 | -5.53 |
| O=C(NCc1ccc(Cl)cc1)C1CCC(=O)N(C2CCCCCC2)C1 (stereo unspecified) | -5.45 |
| CCc1nnc(NC(=O)CSc2nnc(CSc3nc(C)cc(C)n3)n2C)s1 | -1.99 |
| Cc1noc(C)c1S(=O)(=O)N1CCCC1C(=O)NC(C)(C)C (stereo unspecified) | -6.41 |
| Cn1c(=O)cc(OCC(=O)N2CCN(C3CCCCC3)CC2)c2ccccc21 | -5.91 |
| C/C(=N\NC(=S)NCc1ccccc1)c1cccc(Br)c1 | 15.1 |
| O=C(N/N=C/c1c(Cl)cccc1Cl)c1cccc(F)c1 | 19.8 |
| O=C(COC(=O)/C=C/c1ccc(C(F)(F)F)cc1)NCCC1=CCCCC1 | 22.9 |
| CC1CCN(c2ccc(-c3ccc(NC(=O)C(F)(F)F)cc3)nn2)CC1 | -1.23 |
| O=C(COC(=O)c1ccccc1Br)NCCc1ccc(F)cc1 | 6.21 |
| c1ccc(-n2nnc3c(N4CCOCC4)ncnc32)cc1 | -5.01 |
| COc1cccc(OCC(=O)Nc2c3c(nn2-c2ccccc2)CS(=O)(=O)C3)c1 | 4.27 |
| CC(C)(C)c1ccc(-n2ncc3c2CCCC3NC(=O)CCN2CCCCC2=O)cc1 (stereo unspecified) | 6.29 |
| COc1cccc(/C=N/n2c(COc3ccccc3)n[nH]c2=S)c1 | 0.11 |
| O=C(COc1ccccc1)Nc1nc2cc3c(cc2s1)OCO3 | -0.48 |
| CCCCN(CCCNC(=O)Cn1nc(CC)n2c(cc3sc(C)cc32)c1=O)Cc1ccccc1 | 53 |
| NC(=O)C1CCN(c2oc(-c3ccccc3)nc2S(=O)(=O)c2ccc(Br)cc2)CC1 | 12.7 |
| CC1CCc2c(sc(NC(=O)CCCn3cnc([N+](=O)[O-])n3)c2C(N)=O)C1 (stereo unspecified) | 45.2 |
| COc1cc(/C(C)=N\NC(N)=S)cc(OC)c1OC | 51.6 |
| COc1ccc(C(=O)N/C(=C\c2cccs2)c2nc3ccccc3[nH]2)cc1OC | -0.97 |
| CCOC(=O)c1sc(NC(=O)Cn2nnc3sc4c(c3c2=O)CCC(C(C)(C)C)C4)nc1C (stereo unspecified) | 46.5 |
| CCN(CC)c1nc2ccccc2[nH]1 | -2.41 |

| SMILES | inhibition [%] |
| --- | --- |
| CCOC(=O)C1CCN(C(=O)CN(c2cc(Cl)ccc2OC)S(=O)(=O)c2ccccc2)CC1 | -10.3 |
| COc1ccc(C(=O)N(C)C2CCCCC2)cc1OC1CCN(C(C)C)CC1 | 1.56 |
| N#C/C(=C/c1cn(-c2ccccc2)nc1-c1cccc(OCc2ccccc2)c1)C(=O)NCCCn1ccnc1 | 99.6 |
| COc1cc(/C=N/n2c(COc3ccccc3)n[nH]c2=S)cc(Br)c1O | 5.74 |
| CC(/C=C/c1ccc(N(C)C)cc1)=N\N=C(/N)SC1CC(=O)N(c2ccc(C(=O)O)cc2)C1=O (stereo unspecified) | -11.3 |
| CC(C)(C)c1ccc2c(c1)OC(C(=O)N/N=C\c1ccc[nH]1)CO2 (stereo unspecified) | -1.09 |
| CC(=O)O[C@]1(C(C)=O)CCC2C3CCC4=C/C(=N/OCC(=O)O)CC[C@]4(C)C3CC[C@@]21C (stereo partly specified) | 5.51 |
| CCCCCn1c(=O)c(C(=O)NCc2ccncc2)c(O)c2ccccc21 | 55 |
| Cc1ccc(S(=O)(=O)N2CCOCC2)cc1NC(=O)C1=NN(c2ccccc2)C(=O)CC1 | 2.31 |
| Cc1ccc(S(=O)(=O)N2CCN(C(=O)CCn3cncn3)CC2)cc1 | -2.46 |
| COc1ccccc1OCCn1cc(/C=N/n2cnnc2)c2ccccc21 | 2.07 |
| CCOc1ccc(CCNC(=O)CN2C(=O)c3cccnc3Oc3ccc(Cl)cc32)cc1 | 5.78 |
| CCCCC(=O)Oc1c(S(=O)(=O)c2ccccc2)c(C)nn1C(C)(C)C | 12.4 |
| CCNc1nc(SCCOc2ccc(C)cc2)nc(N(C)C)n1 | -0.99 |
| [N-]=[N+]=NC(c1ccccc1)c1nc2ccccc2[nH]c1=O (stereo unspecified) | -0.58 |
| Cc1ccc(S(=O)(=O)N(CC(=O)N/N=C/c2ccco2)Cc2ccccc2)cc1 | -14.5 |
| COc1ccc(-n2c(Cc3cccn3C)nnc2SCC(N)=O)cc1 | -6.05 |
| COc1ccc2oc(C(=O)OCC(=O)NC3CC3)c(C)c2c1 | 19.3 |
